# Laboratory results published in PMC4336329 (PLoS ONE, 2015).
# In all, about 310,000 compounds went through this assay and about 14,000 (4.5%) showed an effect of 50% or more. The effect is printed as a negative number. The list shows a part of the results.
# Molecular target: human ether-à-go-go-related gene (hERG) potassium channel (human, UniProt Q12809)
# Experiment: primary screen, population patch clamp on CHO cells stably expressing hERG
# 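Further: peak tail current of the secondary pulse compared with the same well before compound.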
# human ether-à-go-go-related gene (hERG) potassium channel, sequence (Q12809 whole entry, looked up): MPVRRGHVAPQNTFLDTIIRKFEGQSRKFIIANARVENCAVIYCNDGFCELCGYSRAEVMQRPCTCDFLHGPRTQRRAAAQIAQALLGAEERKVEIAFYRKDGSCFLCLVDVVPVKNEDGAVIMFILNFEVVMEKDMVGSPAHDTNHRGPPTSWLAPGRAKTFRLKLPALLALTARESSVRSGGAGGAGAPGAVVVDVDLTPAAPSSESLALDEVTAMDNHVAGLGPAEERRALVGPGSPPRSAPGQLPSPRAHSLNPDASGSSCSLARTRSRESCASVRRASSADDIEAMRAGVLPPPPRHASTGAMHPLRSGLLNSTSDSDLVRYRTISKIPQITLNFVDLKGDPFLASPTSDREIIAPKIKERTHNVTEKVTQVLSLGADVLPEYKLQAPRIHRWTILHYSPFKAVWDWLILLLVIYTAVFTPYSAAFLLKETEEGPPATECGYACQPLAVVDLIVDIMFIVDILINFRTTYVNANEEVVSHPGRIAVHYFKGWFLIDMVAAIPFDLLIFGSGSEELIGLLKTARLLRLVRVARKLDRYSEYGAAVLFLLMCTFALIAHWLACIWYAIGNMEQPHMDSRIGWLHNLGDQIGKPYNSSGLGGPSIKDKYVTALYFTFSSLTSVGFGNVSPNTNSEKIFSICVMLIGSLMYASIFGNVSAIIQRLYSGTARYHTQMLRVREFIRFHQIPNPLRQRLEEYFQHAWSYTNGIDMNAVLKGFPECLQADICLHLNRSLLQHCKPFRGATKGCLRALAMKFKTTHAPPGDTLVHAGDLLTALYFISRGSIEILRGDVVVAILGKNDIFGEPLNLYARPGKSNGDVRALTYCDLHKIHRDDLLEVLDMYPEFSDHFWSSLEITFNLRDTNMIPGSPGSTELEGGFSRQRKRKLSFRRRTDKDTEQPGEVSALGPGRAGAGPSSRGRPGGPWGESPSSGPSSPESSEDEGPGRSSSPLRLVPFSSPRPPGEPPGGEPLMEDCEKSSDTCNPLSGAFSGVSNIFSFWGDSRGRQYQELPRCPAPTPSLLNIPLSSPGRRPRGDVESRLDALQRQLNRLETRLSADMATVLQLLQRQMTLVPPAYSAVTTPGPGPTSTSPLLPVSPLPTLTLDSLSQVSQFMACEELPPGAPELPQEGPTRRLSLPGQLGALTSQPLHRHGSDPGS
row,SMILES,"hERG current change (%, negative = inhibition) at 10uM [%]"
1,O=C(Nc1ccccc1C(=O)Nc1nnc(C(F)(F)F)s1)c1ccccc1Cl,18.3
2,Cn1c(SCCOc2ccccc2Cl)nnc1-c1cccs1,-35
3,Cc1ccc(NC(=O)N2CCN(C(=O)C3CCCO3)CC2)cc1 (stereo not shown),9.64
4,O=C(c1ccc(COCC(F)(F)F)o1)N1CCCC1,28.6
5,COc1ccc(OC)c(C(=O)NC(CC(N)=O)c2ccc(N3CCC(Cc4ccccc4)CC3)c([N+](=O)[O-])c2)c1 (stereo not shown),-5.07
6,O=C(CCc1ccc(S(=O)(=O)NCCc2ccccc2)cc1)NCc1ccc2c(c1)OCO2,-6.25
7,Cc1ccc(Nc2ccc(C(=O)O)cc2N)cc1,2.73
8,Cn1ncc(Cl)c1C(=O)NCc1cc(C(C)(C)C)n[nH]1,11.5
9,Cc1ccccc1C(=O)Nc1ccnn1C1CCN(Cc2ccc(CO)o2)CC1,-1.16
10,C[C@H]1CCC[C@H](O)CCCCCc2cc(O)cc(O)c2C(=O)O1,-51
11,Cc1ccc(-c2nnc(SCC(=O)NCCN3C(=O)CSC3=O)n2C)cc1,1.59
12,COc1cccc2cc(S(=O)(=O)c3ccc(C)cc3)/c(=N/NS(=O)(=O)c3ccc(C)cc3)oc12,-25.7
13,CC(=O)c1cccc(N(C(=O)c2ccco2)C(C(=O)NC2CCCC2)c2ccccc2F)c1 (stereo not shown),-2.37
14,COc1cccc(C(=O)NNS(=O)(=O)c2ccc(C)cc2)c1,22.4
15,CCOc1ccccc1C(=O)NC1CC2CCCC(C1)N2Cc1nnnn1Cc1ccco1 (stereo not shown),8.17
16,CCc1ccccc1NC(=O)CN(C)C(=O)Cn1cnc2ccc(Cl)cc2c1=O,-13.8
17,COc1ccc(-n2ccc(=O)c(C(=O)O)n2)c(OC)c1,14.8
18,CCC1CCC(c2nnc(-c3ccc([N+](=O)[O-])cc3)o2)CC1 (stereo not shown),-14.6
19,COc1cccc(Nc2nc3ccccc3c(=O)[nH]2)c1,1.69
20,O=C(NC1CCCC1)C(c1ccc(Cl)cc1)N1CCOCC1 (stereo not shown),-2.2
21,CCOC(=O)CN1CCc2c(C)nc3c(-c4ccc(OC)c(OC)c4)cnn3c21,-11.1
22,O=S1(=O)N=C(N=Nc2c(O)[nH]c3ccccc23)c2ccccc21,-37.1

row,SMILES,"hERG current change (%, negative = inhibition) at 10uM [%]"
1,CC1CC(C)CN(CC(O)COc2ccc3c(c2)CCC3)C1.Cl (stereo not shown),-53.2
2,COC(=O)C(COC(=O)c1c(F)cccc1F)NC(=O)c1c(F)cccc1F (stereo not shown),18.2
3,O=C(CN1CCN(c2ccc([N+](=O)[O-])cc2)CC1)Nc1ccccn1,-77.9
4,COc1ccccc1OCCC(=O)O,17.8
5,COc1ccc2cc([C@@H](C)C(=O)[O-])ccc2c1.[Na+],-2.41
6,NC(=O)CC(NC(=O)Cc1cccc2ccccc12)c1ccc(N2CCN(c3ccccc3)CC2)c([N+](=O)[O-])c1 (stereo not shown),18.7
7,Cc1c(NC(=S)NC(=O)CC(C)C)c(=O)n(-c2ccccc2)n1C,-6.24
8,Cc1c(N=Cc2nc3ccccc3[nH]2)c(=O)n(-c2ccccc2)n1C,5.52
9,COc1ccccc1C1CCN(Cc2ccccc2Cl)CC1,-3.3
10,CSc1nsc(SCC(=O)NC2CCCCC2)n1,3.72
11,COCCNC(=O)/C(C#N)=C1\N=C(N)c2ccccc21,-0.413
12,NC(=S)N/N=C\c1c(OCc2ccccc2Cl)ccc2ccccc12,-2.61
13,CCc1cccc(C)c1NC(=O)C1CCCN1C(=O)NCc1ccccc1 (stereo not shown),18.4
14,O=C(NCc1ccco1)c1cccc(Nc2nc3ccc(Br)cc3[nH]2)c1,-11.2
15,Cc1ccc(NC(=O)c2ccccc2OCC(=O)c2ccccc2)cc1,-3.22
16,CN1C(C(=O)NCc2ccco2)CC2Cn3c(nc4cc5ccccc5cc43)C21 (stereo not shown),-38.6
17,CCS(=O)(=O)c1ccc2oc(SCC(=O)Nc3ccc(OC)c(OC)c3)nc2c1,9.94
18,COc1ccc(-c2cn[nH]c2-c2ccc(OCC(=O)NN)cc2O)cc1OC,18.3
19,COCC(=O)Nc1sc2c(c1C(=O)OC)CCC(C)C2 (stereo not shown),-11.8
20,CCOc1cc2[nH]c(=S)n(C3CCN(Cc4ccccc4)CC3)c(=O)c2cc1OCC,17.6
21,COc1ccc(C(=O)N2CC(=O)Nc3ccccc32)cc1S(=O)(=O)N1CCCC1,13
22,Cc1cccc(C(=O)NC2C(=O)NNC2c2ccc(Cl)cc2)c1 (stereo not shown),-18.9

row,SMILES,"hERG current change (%, negative = inhibition) at 10uM [%]"
1,O=C(Nc1ccccc1N1CCOCC1)c1cc2ccccc2o1,24.1
2,NS(=O)(=O)c1ccc(CNS(=O)(=O)c2cc(Cl)ccc2Cl)cc1,4.52
3,CCOc1ccc(N=C2C(=O)Nc3ccc(C)c(Br)c32)cc1,17.7
4,CCOC(=O)C1=C(c2ccccc2)NC(=O)N(C(C)=O)C1c1cccc([N+](=O)[O-])c1 (stereo not shown),-13.8
5,CCOC(=O)N1CCC(NCCNC(=O)c2ccc(Cl)cc2)CC1,-57.8
6,CCN1CCc2c(sc(NC(=O)c3ccc(S(=O)(=O)N4CCCC4)cc3)c2C(=O)NC)C1,-21.7
7,COc1cccc(-n2c(SCC(=O)NCC3CCCO3)nc3c([nH]c4ccccc43)c2=O)c1 (stereo not shown),-22.5
8,Cc1ccc(C(=O)N2CCN(S(=O)(=O)c3ccccc3)CC2)cc1,8.16
9,O=[N+]([O-])c1cccc(NC(=S)N2CCCC2)c1,7.59
10,COc1ccc(-n2nc([N+](=O)[O-])c(=NCCc3cccc(C)c3)n2O)cc1,-0.355
11,COc1cccc(C(=O)C2CCCN(C(=O)c3cccc(C#CC(C)(C)O)c3)C2)c1 (stereo not shown),-18
12,O=C(NCc1cccc(C(F)(F)F)c1)C1CC(c2ccc(C(F)(F)F)cc2)=NO1 (stereo not shown),24.9
13,CC(C)(C)Nc1nc(N2CCCC2)nc(N2CCCC2)n1,-12.9
14,Cc1ccc(S(=O)(=O)N2CC(=NO)C2)cc1,-3.51
15,O=C(/C=C/c1ccccc1Cl)Nc1ccccc1,-0.363
16,CCCCN(CC)C(=O)C1CCC(=O)N(c2ccc(OC)cc2)C1c1ccc(OC)c(OC)c1 (stereo not shown),-10.2
17,CC(CN1C(C)CCCC1C)OC(=O)c1cccc(F)c1.Cl (stereo not shown),-13
18,COc1ccccc1/C=N/Nc1cc(C)nc2ccc(C)cc12,7.89
19,CCC1=C(OC(=O)N(CC)CC)N2C(=O)OC(=NCCc3c[nH]c4ccccc34)[C@]2(C)[C@H]2C1=CC[C@H]1C(=O)NC(=O)[C@H]12,2.9
20,Cc1ccc(-n2c(N)c(C(=O)Nc3ccccc3F)sc2=S)cc1C,22.9
21,CCN(CC)S(=O)(=O)c1ccc(N2CCOCC2)c(NC(=O)c2cc(=O)[nH]c3ccccc23)c1,-12.1
22,Nc1nc(CSc2nc3ccccc3s2)nc(Nc2ccccc2)n1,6.54

row,SMILES,"hERG current change (%, negative = inhibition) at 10uM [%]"
1,CCCCN(C)C(=O)Cn1ncc2c3ccccc3n(CCC)c2c1=O,-42
2,Cc1cc(C(=O)NCc2cc(C(=O)O)co2)co1,13.4
3,COc1ccc(C(=O)COC(=O)c2nn(C)c(=O)c3ccccc23)c(OC)c1,17.7
4,Cc1cc(S(=O)(=O)Nc2nc(CN3CCOCC3)nc3sc4c(c23)CCCC4)ccc1F,-17.2
5,Cc1ccc(OCCCC(=O)NC(C)c2ccccc2)c(C)c1 (stereo not shown),-34.8
6,CN(C)c1nc(Nn2cnnc2)nc(N(C)C)n1,9.61
7,NC(=O)CSc1nc2sc(-c3ccccc3)cc2c(=O)n1N,11
8,Cc1ccccc1-c1cc2c(nn1)-c1ccccc1C2=O,5.78
9,Cc1ccc(-c2nc3cccnc3s2)cc1NS(C)(=O)=O,2.25
10,COc1ccc(-c2nc3c(c(=O)[nH]c(=O)n3Cc3ccccc3)n2C)cc1,15
11,CCOc1ccc(S(=O)(=O)Nc2ccc(C(=O)NCC3(N4CCCCC4)CCCCC3)cc2)cc1,-45.8
12,COc1cccc(C2(O)CCSCC2CN(C)C)c1.Cl (stereo not shown),10.8
13,O=C(CN1CCC(NC(=O)Cc2ccccc2)CC1)Nc1cccc2ccccc12,-27
14,Cc1cc(C)nc(N2CCC(C(=O)NC3CC3)CC2)n1,-4.98
15,CCOc1ccccc1C1C2=C(COC2=O)Nc2cc3c(cc21)OCO3 (stereo not shown),17.9
16,Cc1ccc(CN(Cc2cccnc2)C(=O)CN2C(=O)COc3ccccc32)o1,-1.88
17,COc1ccc(N2CC(C(=O)Nc3ccc4c(c3)OCO4)CC2=O)cc1 (stereo not shown),4.3
18,Cc1ccc(-c2nnn(CC(=O)N(CC(=O)NC3CCCC3)c3cccc(F)c3)n2)o1,11.4
19,CCOc1ccc(-n2c(SC(C)C)nc3c(c2=O)SCC3)cc1,18.4
20,CNC(=S)N(CCc1c(C)[nH]c2ccc(F)cc12)Cc1cccnc1,-14.1
21,Cc1ccc(N2C(=N)SCC2=O)cc1Cl,-70.6
22,Cc1nc2nc(SCC(=O)NCCCN3CCCC3)nn2c(C)c1Cc1ccccc1Cl,-8.22
